In all, about 110,000 compounds were measured (“z-score”: median about -0.1, highest 2% from about 2 on). The list shows a part of the results.
Molecular target: Metabotropic glutamate receptor 8 (Rattus norvegicus) (UniProt P70579)
Experiment: rat mGluR8 modulators via GIRK flux, primary screen, cell-based, thallium flux, HTS (AID 488969)
Settings: HEK293 rat mGluR8, GIRK (G protein-gated inwardly rectifying potassium channel) thallium flux, FluoZin2; at 10 µM; stronger effect = higher value; submaximal glutamate (EC20) added with thallium

Sequence of UniProt P70579 (P70579 whole entry, looked up): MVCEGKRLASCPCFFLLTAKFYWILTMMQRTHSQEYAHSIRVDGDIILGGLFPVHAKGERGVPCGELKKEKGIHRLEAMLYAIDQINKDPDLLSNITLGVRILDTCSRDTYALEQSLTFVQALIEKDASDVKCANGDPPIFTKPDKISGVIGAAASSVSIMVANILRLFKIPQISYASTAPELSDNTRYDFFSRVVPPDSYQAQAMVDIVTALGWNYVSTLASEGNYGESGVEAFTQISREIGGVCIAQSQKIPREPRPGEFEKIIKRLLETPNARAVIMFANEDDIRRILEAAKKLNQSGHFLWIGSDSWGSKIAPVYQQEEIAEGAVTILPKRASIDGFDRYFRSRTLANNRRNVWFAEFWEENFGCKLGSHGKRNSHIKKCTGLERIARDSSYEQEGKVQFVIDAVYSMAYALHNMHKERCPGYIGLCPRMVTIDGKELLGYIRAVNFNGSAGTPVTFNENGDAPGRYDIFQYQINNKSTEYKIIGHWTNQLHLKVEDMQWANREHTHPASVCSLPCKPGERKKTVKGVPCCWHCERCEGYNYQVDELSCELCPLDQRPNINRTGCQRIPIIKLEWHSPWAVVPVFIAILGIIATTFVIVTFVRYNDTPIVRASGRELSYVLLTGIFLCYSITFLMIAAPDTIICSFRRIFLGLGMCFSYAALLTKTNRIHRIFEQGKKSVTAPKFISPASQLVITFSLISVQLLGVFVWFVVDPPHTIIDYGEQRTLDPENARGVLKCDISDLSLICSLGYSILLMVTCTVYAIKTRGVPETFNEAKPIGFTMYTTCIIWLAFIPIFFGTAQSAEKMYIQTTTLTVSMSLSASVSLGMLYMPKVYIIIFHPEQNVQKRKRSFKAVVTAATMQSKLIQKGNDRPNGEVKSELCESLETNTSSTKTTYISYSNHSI

Structure (SMILES) | z-score
CCCN(CC(=O)Nc1cc(Cl)cc(Cl)c1)CC(=O)Nc1ccc(F)c(F)c1F | -0.209
O=C(O)C1CC(=O)N(CCOc2ccccc2)C1 (stereo not given) | -0.106
Cc1cccc(NC(=O)CN(C)S(=O)(=O)c2cnc[nH]2)c1 | 1.6
CC(C)COC(=O)CNc1n[nH]c(=S)[nH]c1=O | 1.98
CCOC(=O)C1CCN(c2ncnc3c2cnn3-c2ccccc2)CC1 | -0.639
C=CCSc1nnc(-c2ccc(Cl)cc2Cl)o1 | -0.0349
O=C(Cc1ccccc1)Nc1scc(-c2ccccc2)c1C(=O)N1CCOCC1 | -0.0604
CCc1cc2c(=O)c(-c3nc4ccccc4n3C)c(C)oc2c(CN(CC)CC)c1O | -0.0764
CCN(CC)C(=O)COc1cc(C)c(Cl)c(C)c1 | 0.126
Cc1ccsc1/C=N\NC(=O)c1ccc2c(c1)OCO2 | 1.8
COc1ccc(C(C)(C)C)cc1NC(=O)c1ccoc1C | -0.969
CC(OC(=O)C1=COCCO1)C(=O)Nc1ccc(Oc2ccccc2)cc1 (stereo not given) | 0.0205
CCc1ccc2[nH]c3nc(C)cc(C)c3c(=O)c2c1 | -0.218
CCc1ccc(C(=O)c2ccccc2C(=O)O)s1 | -0.0365
Cc1ccc(NC(=O)COC(=O)C2CC3C=CC2C3)cc1S(=O)(=O)N1CCCCC1 (stereo not given) | 2.02
C[C@H](Nc1ncnc2sc3c(c12)CCC3)C(=O)O | 0.0927
CCOC(=O)c1[nH]c2ccc(OC)cc2c1NC(=O)CCN1CCCC(C)C1 (stereo not given) | 0.0864
O=C1Nc2ccccc2C(O)(C(=O)NCc2ccco2)N1c1ccc(Cl)c(Cl)c1 (stereo not given) | -0.554
O=C(CSc1oc(-c2ccc(F)cc2)nc1S(=O)(=O)c1ccccc1)NCC1CCCO1 (stereo not given) | 0.331
CCn1c(=O)c2cc(C(=O)Nc3cc(C)on3)sc2c2ccccc21 | -0.19
COc1ccc(OC)c(C(=O)c2oc3ccccc3c2NC(C)=O)c1 | -0.0828
COc1ccc(CNC(=O)C2CCN(c3nc(OC)nc(OC)n3)CC2)cc1 | -0.353
CC[N+]1(C)CCC(=C2c3ccccc3CC(=O)c3sccc32)CC1 (stereo not given) | 0.444
O=C(OCn1nnc2ccccc2c1=O)c1cc(-c2ccccc2)nc2ccccc12 | -0.103

Structure (SMILES) | z-score
COc1ccc(Br)cc1C(=O)Nc1cccc(C)c1C | -0.349
CCOc1ccccc1C1CC(=O)NC(SCC(=O)Nc2nccs2)=C1C#N (stereo not given) | -0.415
Cc1ncc([N+](=O)[O-])n1CC(=O)NC1CCCC1 | 1.41
CCN1C(=O)c2cccc3c(S(=O)(=O)NCc4ccco4)ccc1c23 | -0.124
Cc1cccc(C)c1NC(=O)CNC(=O)C(NC(=O)c1ccc(C(C)(C)C)cc1)C(C)C (stereo not given) | -0.23
CC(=O)Nc1cc(C(=O)N2CCCC2)ccc1S(=O)(=O)c1ccc(Cl)cc1 | -0.31
O=C(N/N=C/c1c[nH]c2ccccc12)c1cc(-c2ccccc2)n[nH]1 | 0.229
COc1cccc(C(c2sc3ncnn3c2O)N2CCc3ccccc3C2)c1 (stereo not given) | -0.404
COc1cccc(N2C(=O)CC(N3CCc4ccccc43)C2=O)c1 (stereo not given) | -0.243
CCOC(=O)c1ccc(NC(=O)Nc2ccc3c4c(cccc24)C(=O)N3CC)cc1 | 0.0515
O=C(Nc1ccc2c(c1)OCO2)C(c1ccccc1)N1CCC2(CC1)OCCO2 (stereo not given) | -0.254
O=C(NCC1CCCO1)c1ccc(CS(=O)(=O)c2ccc(Br)cc2)o1 (stereo not given) | -0.161
CCOC(=O)C1CCN(C(=O)CN(C)S(=O)(=O)c2cc(C)ccc2OC)CC1 | 0.103
CCOCCCNC(=O)C1CCC(CNS(=O)(=O)c2ccc(F)cc2)CC1 (stereo not given) | 0.0607
Cc1ccnc(NC(=O)c2ccoc2C)c1 | -0.455
COc1cccc(NC(=O)C2C3C=CC4(O3)C2C(=O)N(C(C)C)C4C(=O)NC2CCCCC2C)c1 (stereo not given) | 0.0349
COCCCn1c2nc3ccccc3nc2c2c(=O)n(Cc3cccs3)cnc21 | -0.0914
CCOc1ccccc1OCCn1nnc2ccccc21 | 0.385
COc1ccc(-c2nc3n(n2)C(c2ccccc2Cl)C(C(N)=O)=C(C)N3)cc1 (stereo not given) | -0.212
CC(C)(C)c1ccc(S(=O)(=O)Nc2cccnc2)cc1 | -0.237
Cc1nn(Cc2ccc(C(=O)NC(C)(C)C)o2)c(C)c1Br | 0.0484
Cc1ccc(C(=O)NCCc2cccc(Cl)c2)cc1[N+](=O)[O-] | 0.105
COc1cc(C(=O)NC(=S)Nc2ccc(N3CCCC3)cc2)cc(OC)c1OC | -0.391
COc1ccc(C(=O)Nc2ccccc2N2CCN(C(=O)C(C)C)CC2)cc1Cl | 0.512

Structure (SMILES) | z-score
COc1cc(C2Sc3ccccc3NC3=C2C(=O)OC3)cc(OC)c1OC (stereo not given) | -0.286
CCOCCCNCc1c(Cl)cccc1Cl | -0.357
CCC(C)NC(=O)C(CCSC)NC(=O)c1ccccc1 (stereo not given) | 0.251
COc1ccc(C2Nc3ccccc3C(=O)N2c2ccccc2)cc1CSc1ccccn1 (stereo not given) | -0.13
N#CC(c1ccc(Cl)cc1)c1ncc(C(F)(F)F)cc1Cl (stereo not given) | -0.0701
Cc1cccc(CN(C)CCc2ccccn2)c1 | -0.645
COc1ccc(C(CC(=O)O)NC(=O)c2ccccc2)cc1OC (stereo not given) | -0.105
O=C(Nc1nc(-c2ccc(Cl)s2)cs1)c1ccccc1 | 0.171
CN(/N=C/c1cccnc1)c1cnn(-c2ccc(F)c(Cl)c2)c(=O)c1Cl | -0.0102
COc1ccc(-n2cccc2/C=C2/NC(=O)N(c3cccc(Cl)c3)C2=O)cc1 | 1.07
COCCCNC(=O)c1ccc(CNS(=O)(=O)c2ccc(NC(C)=O)cc2)cc1 | 0.124
CCOc1ccc(C(C)=O)cc1N1C(=O)C2C3C=CC(O3)C2C1=O (stereo not given) | -0.01
CCOC(=O)C1CCCN(C(=O)C2CCCN(S(C)(=O)=O)C2)C1 (stereo not given) | 0.0209
CCN(CC)CCN1C(=O)C(=O)/C(=C(/O)c2cnn(-c3ccccc3)c2C)C1c1ccc(C)o1 (stereo not given) | 0.00665
Cc1ccc(S(=O)(=O)NCCSc2ccccc2)cc1[N+](=O)[O-] | -0.0158
CCN(CC)S(=O)(=O)c1ccc(N/N=C/c2cc(OC)c(OC)cc2OC)nc1 | -0.171
Cc1ccc(C(=O)N2CCN(C(=O)c3ccccc3)C2c2ccc(N(C)C)cc2)cc1 (stereo not given) | 0.17
CCCc1nc(SCC(=O)N2CCc3ccccc32)c2c(C)c(C)sc2n1 | -0.214
CCN(CC)C(=O)c1ccc(C(=O)c2ccccc2)cc1 | -0.631
Cn1cccc1/C=C1\CC(C(C)(C)C)C/C(=C\c2cccn2C)C1=O (stereo not given) | -0.348
O=C1NC(c2ccccc2)=N/C1=C/c1ccco1 | -0.338
CCCn1nnc(NC(=O)c2cccc(OCc3ccccc3)c2)n1 | 0.00303

Reference: PubChem BioAssay AID488969 (Vanderbilt High Throughput Screening Facility, 2010)
